This note sets out measurements from the supplement of paper PMC7125110.

Sequences and labels used below:
B1: glmS ribozyme (parent)
chain: AUAAAAGCGCCAGAACUACAGAAAUGUAGUUGACGAGGAGGAGGUUUAUCGAAUUUUCGGCGGAUGCCUCCAAA

Settings in all cases: with glucosamine-6-phosphate
Variants of B1 are the subject of data set [1]. The experiment in a line: self-cleavage kobs at 640 uM GlcN6P; higher = faster cleavage; RNA array. In short, it runs like this: (§1)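 kobs was derived by fitting per-tile medians to one- or two-exponential decays after normalising signals to baseline and to non-cleaving reference variants. Those signals came from barcoded ribozyme variants transcribed in situ by E. coli RNA polymerase on sequenced MiSeq chips, followed through a hybridised Cy3 probe at 37 °C and imaged over ~14 h. Glucosamine-6-phosphate (40 μM to 10 mM) in HEPES/KCl/Mg(OAc)2 buffer was flowed in. Weighted Michaelis–Menten fits across concentrations then gave kcat and KM.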

In data set [2] the parent is B1. Briefly: self-cleavage kobs at 2500 uM GlcN6P; higher = faster cleavage; RNA array. In short, it runs like this:
as §1

In data set [3] the parent is B1. The experiment in a line: self-cleavage kobs at 160 uM GlcN6P; higher = faster cleavage; RNA array. In short, it runs like this: as §1
The variants in data set [4] derive from B1. The experiment in a line: self-cleavage kobs at 10000 uM GlcN6P; higher = faster cleavage; RNA array. In short, it runs like this:
as §1

Variants at the background level are over-represented here.

For C8U U30A A39U, the “self-cleavage kobs at 640 uM GlcN6P” value with glucosamine-6-phosphate [1] was less than 1e-05 s⁻¹. Moreover, in the data set with glucosamine-6-phosphate [2], the “self-cleavage kobs at 2500 uM GlcN6P” value was less than 1e-05 s⁻¹.

In the case of C8G A15G C16U U45G U49A, in the data set with glucosamine-6-phosphate [1], the “self-cleavage kobs at 640 uM GlcN6P” value is less than 1e-05 s⁻¹.

On to C8A G13U A15G A33C, for which, in the data set with glucosamine-6-phosphate [1], the “self-cleavage kobs at 640 uM GlcN6P” value is less than 1e-05 s⁻¹. Moreover, in the data set with glucosamine-6-phosphate [3], the “self-cleavage kobs at 160 uM GlcN6P” value is less than 1e-05 s⁻¹. In addition, the “self-cleavage kobs at 2500 uM GlcN6P” value in the data set with glucosamine-6-phosphate [2] is less than 1e-05 s⁻¹.

Regarding C8G G35C, the “self-cleavage kobs at 640 uM GlcN6P” value with glucosamine-6-phosphate [1] was less than 1e-05 s⁻¹. The “self-cleavage kobs at 160 uM GlcN6P” value with glucosamine-6-phosphate [3] is less than 1e-05 s⁻¹. In addition, the “self-cleavage kobs at 2500 uM GlcN6P” value in the data set with glucosamine-6-phosphate [2] was less than 1e-05 s⁻¹. The “self-cleavage kobs at 10000 uM GlcN6P” value in the data set with glucosamine-6-phosphate [4] was less than 1e-05 s⁻¹.

Take G9A C11A A14G C34G G35U A36U A48U U55C C67G U69C: the “self-cleavage kobs at 640 uM GlcN6P” value with glucosamine-6-phosphate [1] was less than 1e-05 s⁻¹.

On to G9A A12C, for which the “self-cleavage kobs at 640 uM GlcN6P” value with glucosamine-6-phosphate [1] is less than 1e-05 s⁻¹.

Consider C8U U31A G62U, for which the “self-cleavage kobs at 640 uM GlcN6P” value with glucosamine-6-phosphate [1] is less than 1e-05 s⁻¹. In the data set with glucosamine-6-phosphate [2], the “self-cleavage kobs at 2500 uM GlcN6P” value is less than 1e-05 s⁻¹. In addition, the “self-cleavage kobs at 10000 uM GlcN6P” value in the data set with glucosamine-6-phosphate [4] is less than 1e-05 s⁻¹.

As for C8A U30G C34G, in the data set with glucosamine-6-phosphate [1], the “self-cleavage kobs at 640 uM GlcN6P” value was less than 1e-05 s⁻¹.

Turning to C8G C11U G41U C61U, the “self-cleavage kobs at 640 uM GlcN6P” value with glucosamine-6-phosphate [1] is less than 1e-05 s⁻¹.

Regarding C8U A53G C68A, in the data set with glucosamine-6-phosphate [1], the “self-cleavage kobs at 640 uM GlcN6P” value is less than 1e-05 s⁻¹. Further, in the data set with glucosamine-6-phosphate [2], the “self-cleavage kobs at 2500 uM GlcN6P” value was less than 1e-05 s⁻¹.

For the variant C8A G9C U30G G38A, in the data set with glucosamine-6-phosphate [1], the “self-cleavage kobs at 640 uM GlcN6P” value was less than 1e-05 s⁻¹.

With C8G G13U C16A G37A, the “self-cleavage kobs at 640 uM GlcN6P” value in the data set with glucosamine-6-phosphate [1] was less than 1e-05 s⁻¹.

As for C8G G43C G44A, the “self-cleavage kobs at 640 uM GlcN6P” value in the data set with glucosamine-6-phosphate [1] was less than 1e-05 s⁻¹.

With C8G G43A G60C, the “self-cleavage kobs at 640 uM GlcN6P” value in the data set with glucosamine-6-phosphate [1] is less than 1e-05 s⁻¹. Further, the “self-cleavage kobs at 2500 uM GlcN6P” value with glucosamine-6-phosphate [2] was less than 1e-05 s⁻¹. The “self-cleavage kobs at 10000 uM GlcN6P” value with glucosamine-6-phosphate [4] was less than 1e-05 s⁻¹.

For C8G C16A G63U C67U, in the data set with glucosamine-6-phosphate [1], the “self-cleavage kobs at 640 uM GlcN6P” value was less than 1e-05 s⁻¹. The “self-cleavage kobs at 2500 uM GlcN6P” value with glucosamine-6-phosphate [2] was less than 1e-05 s⁻¹.

Consider C8G C10G G41C U46G U55G, for which, in the data set with glucosamine-6-phosphate [1], the “self-cleavage kobs at 640 uM GlcN6P” value was less than 1e-05 s⁻¹.

Turning to C8U G9A G29U C58U, in the data set with glucosamine-6-phosphate [1], the “self-cleavage kobs at 640 uM GlcN6P” value was less than 1e-05 s⁻¹. Further, the “self-cleavage kobs at 2500 uM GlcN6P” value with glucosamine-6-phosphate [2] was less than 1e-05 s⁻¹.

As for C8U C16G G51U, in the data set with glucosamine-6-phosphate [1], the “self-cleavage kobs at 640 uM GlcN6P” value is less than 1e-05 s⁻¹. For the same variant, in the data set with glucosamine-6-phosphate [3], the “self-cleavage kobs at 160 uM GlcN6P” value was less than 1e-05 s⁻¹. In addition, in the data set with glucosamine-6-phosphate [2], the “self-cleavage kobs at 2500 uM GlcN6P” value is less than 1e-05 s⁻¹.

Turning to C8U U56A U65C, the “self-cleavage kobs at 640 uM GlcN6P” value with glucosamine-6-phosphate [1] was less than 1e-05 s⁻¹.

Turning to C8G G59U G66U, the “self-cleavage kobs at 640 uM GlcN6P” value with glucosamine-6-phosphate [1] is less than 1e-05 s⁻¹.

On to G9A A12U G29A G32A G38C G60A C61A, for which the “self-cleavage kobs at 640 uM GlcN6P” value with glucosamine-6-phosphate [1] is less than 1e-05 s⁻¹.

For the variant C8U C16G, the “self-cleavage kobs at 640 uM GlcN6P” value with glucosamine-6-phosphate [1] is less than 1e-05 s⁻¹. The “self-cleavage kobs at 160 uM GlcN6P” value in the data set with glucosamine-6-phosphate [3] was less than 1e-05 s⁻¹.

As for C8U G38U U49C U69C, the “self-cleavage kobs at 640 uM GlcN6P” value in the data set with glucosamine-6-phosphate [1] is less than 1e-05 s⁻¹. The “self-cleavage kobs at 2500 uM GlcN6P” value in the data set with glucosamine-6-phosphate [2] is less than 1e-05 s⁻¹.

For the variant C8U G37A G43A U65C, the “self-cleavage kobs at 640 uM GlcN6P” value in the data set with glucosamine-6-phosphate [1] was less than 1e-05 s⁻¹. The “self-cleavage kobs at 160 uM GlcN6P” value in the data set with glucosamine-6-phosphate [3] was less than 1e-05 s⁻¹.

C8U G13A G66U: in the data set with glucosamine-6-phosphate [1], the “self-cleavage kobs at 640 uM GlcN6P” value is less than 1e-05 s⁻¹. Besides, in the data set with glucosamine-6-phosphate [2], the “self-cleavage kobs at 2500 uM GlcN6P” value is less than 1e-05 s⁻¹.

Regarding C8G G32A C61A, in the data set with glucosamine-6-phosphate [1], the “self-cleavage kobs at 640 uM GlcN6P” value was less than 1e-05 s⁻¹. Besides, the “self-cleavage kobs at 2500 uM GlcN6P” value with glucosamine-6-phosphate [2] is less than 1e-05 s⁻¹.

With C8U G41U U69G, the “self-cleavage kobs at 640 uM GlcN6P” value with glucosamine-6-phosphate [1] is less than 1e-05 s⁻¹.

Consider C8U C34A A53G U55C, for which, in the data set with glucosamine-6-phosphate [1], the “self-cleavage kobs at 640 uM GlcN6P” value is less than 1e-05 s⁻¹.

For C8G G13A U45G, the “self-cleavage kobs at 640 uM GlcN6P” value with glucosamine-6-phosphate [1] was less than 1e-05 s⁻¹. In addition, the “self-cleavage kobs at 2500 uM GlcN6P” value in the data set with glucosamine-6-phosphate [2] is less than 1e-05 s⁻¹.

Regarding C8G A14C G63A, the “self-cleavage kobs at 640 uM GlcN6P” value in the data set with glucosamine-6-phosphate [1] was less than 1e-05 s⁻¹. In the data set with glucosamine-6-phosphate [2], the “self-cleavage kobs at 2500 uM GlcN6P” value is less than 1e-05 s⁻¹.

Turning to C8U A39U C71A, the “self-cleavage kobs at 640 uM GlcN6P” value with glucosamine-6-phosphate [1] was less than 1e-05 s⁻¹. Further, the “self-cleavage kobs at 10000 uM GlcN6P” value with glucosamine-6-phosphate [4] is less than 1e-05 s⁻¹.

On to C8G A64G U65G C67A, for which the “self-cleavage kobs at 640 uM GlcN6P” value with glucosamine-6-phosphate [1] is less than 1e-05 s⁻¹. Also, the “self-cleavage kobs at 2500 uM GlcN6P” value with glucosamine-6-phosphate [2] was less than 1e-05 s⁻¹.

Regarding C8G G9U A48C G59U, the “self-cleavage kobs at 640 uM GlcN6P” value with glucosamine-6-phosphate [1] was less than 1e-05 s⁻¹.
